# Experimental data from PubChem BioAssay AID624418 (National Center for Advancing Translational Sciences (NCATS), 2012).
# Hit rate of the full screen: of about 410,000 compounds, about 530 (0.13%) were called active. The shares of active, inactive and inconclusive entries below differ from those in the screen. The call rests on the fitted dose curve; in most records, active means well fitted inhibition curve with a large enough effect; inconclusive means small, poorly fitted or top-dose-only effect, or another doubt; inactive means no such curve, though single readings can be large or run the other way. A potency beside an inconclusive call is a rough fit, not a confirmed value.
# Test: qHTS of GLP-1 Receptor Inverse Agonists: Cytotox Screen
# Conditions: HEK293 cAMP-luciferase reporter cells, luminescence, 24 h; activity change, negative = inhibition: at 38.3 µM (top of the series) unless noted
# Method in brief: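 Step one: seed cells (200 cells/uL, DMEM with 10% Nu serum, 1% pen-strep). Step two: 12-hour incubation at 37 deg C. Step three: pin 23 nL compound, incubate 24 hr. Step four: add luciferase reagent, read luminescence 12 min later.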
# On the % scale 0 is the no-effect control and ±100 the full control effect; potency means the concentration at half of the fitted maximal effect.
Structure (SMILES),Potency,"activity change, negative = inhibition"
O=C(NCCCNc1ccc([N+](=O)[O-])cc1)C(F)(F)F,"inconclusive: 28.2 µM [inhibitor, single point]",–
CCn1c(SCC(=O)NC2CC2)nnc1-c1ccccc1OC,"inconclusive: 0.447 µM [inhibitor, full curve, poor fit]",–
O=C(c1cccc(Cl)c1)N1c2ncnn2C2(CCCCC2)[C@@H]2CCCC[C@@H]21,–,inactive: 0.369%
Cc1ccc(Cl)cc1NC(=O)CCc1c(C)nc2c3cccnc3nn2c1C,–,inactive: 0.419%
Nc1c(C(=O)Nc2nccs2)sc2nc(-c3cccs3)cc(C(F)(F)F)c12,–,inactive: 35.8%
CN1C(=S)SC2CS(=O)(=O)CC21 (stereo unspecified),"inconclusive: 22.4 µM [inhibitor, single point]",–
Cc1cc(NCc2ccccc2)nc2ccccc12,"inconclusive: 15.8 µM [inhibitor, partial curve, poor fit]",–
Cc1ccc(S(=O)(=O)c2nc(S(C)(=O)=O)sc2N2CCC(O)CC2)cc1,–,inactive: 6.41%
Cn1cnc([N+](=O)[O-])c1S(=O)(=O)Oc1ccc(Cl)cc1,"inconclusive: 11.2 µM [inhibitor, single point]",–
CCCCCCCCC/C(=N\O)c1ccccn1,"inconclusive: 10 µM [inhibitor, single point]",–
Fc1ccc(N=C2NN=C(c3cc(F)ccc3F)CS2)cc1,"inconclusive: 28.2 µM [inhibitor, single point]",–
CSc1nnc(Cn2c(=O)sc3ccccc32)n1CCc1ccccc1,"inconclusive: 28.2 µM [inhibitor, single point]",–
O=C(Nc1ncccc1O)c1cc2ccccc2o1,"inconclusive: 22.4 µM [inhibitor, single point]",–
Cc1ccc(OCC(=O)NC2CCCC(C)C2C)c([N+](=O)[O-])n1 (stereo unspecified),–,inactive: -2.34%
O=C(Oc1cccc2cccnc12)c1cccc([N+](=O)[O-])c1,"inconclusive: 5.62 µM [inhibitor, full curve]",–
COc1ccccc1CNC(=S)Nc1cc(C)ccc1C,"inconclusive: 20 µM [inhibitor, single point]",–
Oc1ccc2ccccc2c1C=Nc1ccccc1-c1nc2ccccc2[nH]1,"inconclusive: 14.1 µM [inhibitor, single point]",–
CCOc1ccc(NC(=S)Nc2ccc(OCc3ccccc3)cc2)cc1,–,inactive: -3.77% [at 1.53 µM]
COc1cccc(NC(=O)Nc2nnc(CC(=O)NCc3ccccc3)s2)c1,"inconclusive: 7.94 µM [inhibitor, partial curve, poor fit]",–
O=C(CCc1ccccc1O)N/N=C/c1ccc(Sc2cccc3cccnc23)o1,"inconclusive: 22.4 µM [inhibitor, partial curve, poor fit]",–
N#C/C(=C\c1c[nH]c2ccc(Br)cc12)c1ccccn1,"inconclusive: 4.47 µM [inhibitor, partial curve, poor fit]",–
CC(=O)NC(c1cccc([N+](=O)[O-])c1)c1ccc2cccnc2c1O (stereo unspecified),"inconclusive: 1.41 µM [inhibitor, full curve]",–

Structure (SMILES),Potency,"activity change, negative = inhibition"
Cc1ccc(N=Nc2ccc(N)cc2C)c(S(N)(=O)=O)c1,"inconclusive: 3.55 µM [inhibitor, full curve]",–
CC(C)C1=NN(C(=O)c2ccccc2)C(O)(C(C)(C)C)C1 (stereo unspecified),"inconclusive: 12.6 µM [inhibitor, single point]",–
CCOC(=O)c1c(NC(=O)CSc2nc3ccc(C)cc3[nH]2)sc2c1CC(C)(C)NC2(C)C,"inconclusive: 28.2 µM [inhibitor, single point]",–
FC(F)(F)c1cccc(N2CCN(C(=S)NC3CCCCC3)CC2)c1,–,inactive: -29.2%
COCc1ccc(O)c2ncccc12,"inconclusive: 0.501 µM [inhibitor, full curve, poor fit]",–
O=C(Nc1cc([N+](=O)[O-])ccc1O)c1cccc(NC(=O)c2ccco2)c1,"inconclusive: 10 µM [inhibitor, partial curve, poor fit]",–
CCN(CC)C(=S)NC(=O)c1ccc(OC)c(Br)c1,"inconclusive: 3.16 µM [inhibitor, partial curve, poor fit]",–
CCOc1ccc(CNC(=S)N/N=C\c2ccc([N+](=O)[O-])cc2)cc1,"inconclusive: 7.08 µM [inhibitor, partial curve, poor fit]",–
O=C(Nc1ccc(F)c(Cl)c1)c1ccccc1NC(=O)C1CCCCC1C(=O)O (stereo unspecified),"inconclusive: 3.16 µM [inhibitor, partial curve]",–
O=C1OCC2=C1C(c1ccc(F)cc1)Sc1ccccc1N2 (stereo unspecified),"inconclusive: 28.2 µM [inhibitor, single point]",–
OCCc1c[nH]c2ccc(OCc3ccccc3)cc12,–,inactive: 1.38%
Cc1cc2oc(C(=O)N(Cc3ccco3)Cc3ccccc3Cl)c(C)c2cc1C,–,inactive: 4.48%
COc1ccc(C=NNC(=S)NC23CC4CC(CC(C4)C2)C3)cc1OC,"inconclusive: 2.51 µM [inhibitor, full curve, poor fit]",–
O=C(NCC1CC1)c1cc2c(c(-c3cccc(-c4ccccc4F)c3)n1)[C@H](CCO)N(C(=O)CC1CC1)C2,"inconclusive: 28.2 µM [inhibitor, single point]",–
NC(=O)CCn1c(C(=O)c2cccc([N+](=O)[O-])c2)c2ccccc2[n+]1[O-],"inconclusive: 0.501 µM [inhibitor, partial curve, poor fit]",–
CC(=O)Nc1ccc(Sc2ncccc2C(=O)Nc2ccc(F)cc2)cn1,"inconclusive: 28.2 µM [inhibitor, single point]",–
NCCNC[C@@H]1COC2(CCCCCCCCCCC2)O1,–,inactive: -28.8%
COc1ccc(-c2nc(NCCCN(C)C)c3ccccc3n2)cc1,"inconclusive: 22.4 µM [inhibitor, single point]",–
CC1CCCN(CCCNC(=O)c2cc3c(Cl)nc4ccccc4c3s2)C1 (stereo unspecified),"inconclusive: 12.6 µM [inhibitor, single point]",–
CCc1cccc(CC)c1NC(=S)NCCc1c(C)[nH]c2ccc(C)cc12,–,inactive: -14.5%
CCCCP(=O)(CCCC)c1ccccc1C(=O)O,"inconclusive: 28.2 µM [inhibitor, single point]",–
C[C@H](CO)N1C[C@H](C)[C@@H](CN(C)C(=O)Nc2ccc3c(c2)OCO3)Oc2c(NC(=O)Nc3ccc(C(F)(F)F)cc3)cccc2C1=O,"inconclusive: 3.16 µM [inhibitor, full curve, poor fit]",–

Structure (SMILES),Potency,"activity change, negative = inhibition"
O=[N+]([O-])c1ccc(C2=NN(c3ccccc3)C(c3ccco3)C2)cc1 (stereo unspecified),–,inactive: 9.31%
C=C1CC(C)OC(c2ccccc2OCC(O)CN2CCCCC2)C1 (stereo unspecified),"inconclusive: 10 µM [inhibitor, partial curve, poor fit]",–
COc1ccc(CCN2C(=O)CC(N3CCC(C(N)=O)CC3)C2=O)cc1OC (stereo unspecified),"inconclusive: 28.2 µM [inhibitor, single point]",–
Cc1ccccc1NC(=O)c1ccccc1NC(=O)c1cccs1,–,inactive: -3.63%
O=C1C=CC(=O)N1c1ccc2c(c1)C(NC(=O)C(F)(F)F)c1ccccc1-2 (stereo unspecified),"inconclusive: 28.2 µM [inhibitor, single point]",–
COc1ccccc1C(=O)Nc1ccc2c(c1)nc(CCNC(=O)c1ccccc1)n2C,active: 10 µM,–
CC1CCN(c2nnc(-c3cccs3)c3ccccc23)CC1,–,inactive: 14.8%
Cc1cc(Br)cc2c1N(Cc1ccccc1OC(C)C)C(=O)C2=O,"inconclusive: 12.6 µM [inhibitor, single point]",–
CCCc1cc(=O)n2[nH]cc(-c3ccc(Cl)cc3)c2n1,"inconclusive: 20 µM [inhibitor, single point]",–
Cc1cccc2c1NC(C)CC2C (stereo unspecified),"inconclusive: 10 µM [inhibitor, partial curve, poor fit]",–
CCCn1c(C2CCCN2c2nc(-c3ccc(C)cc3)cs2)nc2ccccc21 (stereo unspecified),"inconclusive: 28.2 µM [inhibitor, single point]",–
CCCOc1ccc(-c2c(C(=O)N/N=C/c3ccc(C)o3)nnn2-c2nonc2N)cc1,–,inactive: -1.22%
Cc1c(C(=O)Nc2ccc(S(=O)(=O)N(C)C3CCN(C)CC3)cc2)oc2ccccc12,"inconclusive: 28.2 µM [inhibitor, single point]",–
CCOC(=O)c1cc(NC(=O)Cc2ccc(S(=O)(=O)N3CCOCC3)s2)cc(C(=O)OCC)c1,"inconclusive: 28.2 µM [inhibitor, single point]",–
COc1ccc(OC)c(NC(=O)Cn2cnc3onc(-c4ccc(Cl)cc4)c3c2=O)c1,"inconclusive: 2.51 µM [inhibitor, partial curve, poor fit]",–
CCOc1cc(C2C(C#N)=C(N)Oc3n[nH]c(-c4ccccc4)c32)ccc1O (stereo unspecified),"inconclusive: 17.8 µM [inhibitor, single point]",–
Cc1ccc(NC(=O)c2ccc(Nc3c([N+](=O)[O-])cc([N+](=O)[O-])cc3[N+](=O)[O-])cc2)cc1,"inconclusive: 11.2 µM [inhibitor, single point]",–
CSc1ccccc1NC(=O)CN(C)C(C)C(=O)NC(=O)NC1CCCCC1 (stereo unspecified),"inconclusive: 14.1 µM [inhibitor, single point]",–
CCOc1cc(/C=C2\NC(=O)NC2=O)cc([N+](=O)[O-])c1O,"inconclusive: 11.2 µM [inhibitor, single point]",–
CCn1c(SC(C)C)nnc1-c1cc(-c2ccccc2)sc1N,"inconclusive: 12.6 µM [inhibitor, partial curve, poor fit]",–
CC1(C)Cc2nc3sc4c(SCC(=O)NCc5ccco5)ncnc4c3cc2CO1,"inconclusive: 2 µM [inhibitor, full curve]",–
COc1ccc2c(c1)sc1nc(-c3ccccc3)cn12,"inconclusive: 0.501 µM [inhibitor, full curve, poor fit]",–
